In PubChem BioAssay AID1634 (National Center for Advancing Translational Sciences (NCATS), 2009):
Screen size: about 260,000 compounds; about 150 (0.058%) were called active. The shares of active, inactive and inconclusive entries below differ from those in the screen. Calls come from the whole dose curve; as a rule, active = well fitted inhibition curve with a large enough effect; inconclusive = small, poorly fitted or top-dose-only effect; inactive = no such curve, though single readings can be large or run the other way. No potency is given beside an inconclusive call; the fits are too rough.

Target: Pyruvate kinase PKM (Homo sapiens) (UniProt P14618)
UniProt P14618, sequence (P14618 whole entry, looked up, canonical isoform): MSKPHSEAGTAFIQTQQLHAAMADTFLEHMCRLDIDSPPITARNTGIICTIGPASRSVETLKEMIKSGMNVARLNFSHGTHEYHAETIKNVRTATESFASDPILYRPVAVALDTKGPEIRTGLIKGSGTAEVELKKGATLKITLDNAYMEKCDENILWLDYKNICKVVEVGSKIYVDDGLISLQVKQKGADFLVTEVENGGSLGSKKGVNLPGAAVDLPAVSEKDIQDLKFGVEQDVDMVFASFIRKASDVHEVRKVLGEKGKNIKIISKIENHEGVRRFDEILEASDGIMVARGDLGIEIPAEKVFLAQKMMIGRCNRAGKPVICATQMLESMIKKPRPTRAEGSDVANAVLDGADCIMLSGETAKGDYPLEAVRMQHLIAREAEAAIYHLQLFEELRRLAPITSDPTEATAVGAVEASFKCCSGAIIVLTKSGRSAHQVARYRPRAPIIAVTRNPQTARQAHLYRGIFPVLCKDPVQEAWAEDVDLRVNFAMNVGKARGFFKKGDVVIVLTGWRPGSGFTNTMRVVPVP
Assay: qHTS Assay for Inhibitors of Human Muscle isoform 2 Pyruvate Kinase; note: nearly all actives have a fitted effect of over 60% in size;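 for activity change, negative = inhibition: plate controls were uninhibited enzyme wells for no effect and no-enzyme wells for full effect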
Settings: purified PKM2, ATP generation, Kinase-Glo luminescence; series mostly up to 57.5 µM; activity change, negative = inhibition: at the top concentration
In short: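 Coupled luciferase luminescence (Kinase-Glo) detects ATP generated from 0.1 mM ADP and 0.5 mM PEP in imidazole buffer pH 7.2 with KCl, MgCl2; 1 h at room temperature. Enzyme at intermediate activity; normalized to uninhibited and no-enzyme controls.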
Potency is the fitted concentration of half-maximal effect; tags give direction and shape of the fitted curve.

Q: With `Cc1[nH]c(-c2ccc3c(c2)OCO3)nc1C(=O)O` as the compound, how does the Potency read?
A: Its Potency is inconclusive [falling, partial curve].

Q: Which Potency does the source give for `CN1/C(=C/C(=O)c2cccs2)Sc2ccccc21` here?
A: The Potency was inconclusive [falling, single point].

Q: For `COc1ccc(/C=N\NC(=O)C2=NNC(=O)C2C)cc1` (centres undefined), which Potency is on record?
A: The Potency was inconclusive [falling, partial curve].

Q: How did the Potency turn out when `Cc1ccc(S(=O)(=O)NCCC(=O)Nc2nnc(C3CC3)s2)cc1C` was run?
A: Its Potency is inconclusive [falling, full curve, poor fit].

Q: Which Potency does the source give for `Cc1ccc(-c2nc(-c3ccccn3)no2)cc1Cl` here?
A: Its Potency is inconclusive [falling, partial curve].

Q: For `COc1c(Cl)cccc1-c1cn2ccccc2n1`, which Potency is on record?
A: Its Potency is inconclusive [falling, partial curve].

Q: `Cc1ccc(N2NC(=O)/C(=C\c3cc4c(cc3[N+](=O)[O-])OCO4)C2=O)cc1C` was tested. Which “activity change, negative = inhibition” value did it give?
A: The value was inactive: 39.3%.

Q: `Cc1[nH]n(-c2ccc([N+](=O)[O-])cc2)c(=O)c1C=NCCN1CCN(C(=O)C(C)C)CC1` was tested. Which Potency did it give?
A: The Potency was inconclusive [falling, partial curve].

Q: `CCOC(=O)c1cccc(NC(=O)c2ccccc2C)c1` was tested. Which Potency did it give?
A: Its Potency is inconclusive [falling, single point].

Q: Which “activity change, negative = inhibition” value does the source give for `C=CCN1C(=O)N/C(=C/c2ccc(N3CCOCC3)o2)C1=O` here?
A: Its value is inactive: 44.9%.

Q: Which Potency does the source give for `CN(C)c1ccc(/C=C/c2ccc3ccccc3[n+]2C)cc1` here?
A: The Potency was inconclusive [falling, partial curve].

Q: With `Cc1ccc2nc(-c3cccnc3)cc(C(=O)N3CCN(c4ccc([N+](=O)[O-])cc4)CC3)c2c1` as the compound, how does the Potency read?
A: Its Potency is inconclusive [falling, single point].

Q: `Nc1ccccc1C(=O)/C=C/c1ccc2c(c1)OCO2` was tested. Which Potency did it give?
A: The Potency was inconclusive [falling, single point].

Q: `O=C(CC1Sc2ncnn2C1=O)Nc1ccc(Cl)cc1` (centres undefined) was tested. Which Potency did it give?
A: The Potency was inconclusive [falling, single point].

Q: With `Cc1c(OC(C)C(=O)N[C@H](C(=O)O)c2ccccc2)ccc2c3c(c(=O)oc12)CCCC3` (some centres undefined) as the compound, how does the “activity change, negative = inhibition” value read?
A: Its value is inactive: -0.272%.

Q: `Cc1occc1C(=O)Nc1cc(C(C)(C)C)on1` was tested. Which Potency did it give?
A: The Potency was inconclusive [falling, partial curve].

Q: How did the “activity change, negative = inhibition” value turn out when `COC(=O)Cn1c(=O)c2c(nc3n2CC(C)CN3c2ccc(C)c(C)c2)n(C)c1=O` (centres undefined) was run?
A: Its value is inactive: 132%.

Q: For `Clc1cccc(Sc2ccc(-c3ccccn3)s2)c1`, which Potency is on record?
A: Its Potency is inconclusive [falling, single point].

Q: With `N#CC(c1ccc(O)cc1)c1ncc(C(F)(F)F)cc1Cl` (centres undefined) as the compound, how does the “activity change, negative = inhibition” value read?
A: The value was inactive: 32.9%.

Q: Which “activity change, negative = inhibition” value does the source give for `CCOC(=O)c1c(-c2ccc(C)o2)csc1NC(=S)NC(=O)c1cccs1` here?
A: The value was inactive: 37.5%.

Q: For `Cc1sc(C(C2C(=O)CC(C)(C)CC2=O)C2C(=O)CC(C)(C)CC2=O)cc1[N+](=O)[O-]`, which “activity change, negative = inhibition” value is on record?
A: Its value is inactive: 62.6%.

Q: `COc1ccccc1NC(=S)N(CCN1CCOCC1)Cc1ccccc1F` was tested. Which Potency did it give?
A: Its Potency is inconclusive [falling, single point].

Q: For `O=c1cc(-c2ccccc2)nc2cc(-c3ccco3)[nH]n12`, which Potency is on record?
A: Its Potency is inconclusive [falling, single point].

Q: Which “activity change, negative = inhibition” value does the source give for `O=C1COc2ccc(S(=O)(=O)Nc3ccc4c(c3)OCO4)cc2N1` here?
A: The value was inactive: 47.5%.

Q: For `CSc1nsc(SC)c1C(=O)NC(=O)Nc1cccnc1`, which Potency is on record?
A: Its Potency is inconclusive [falling, single point].

Q: How did the Potency turn out when `O=C(Nc1ccc(OC(F)(F)F)cc1)c1ccc(S(=O)(=O)N2CCOCC2)o1` was run?
A: Its Potency is inconclusive [falling, single point].

Q: `Cn1c(=O)c(=O)n(C)c2cc(S(=O)(=O)N3CCCC3C(=O)Nc3ccccc3F)ccc21` (centres undefined) was tested. Which Potency did it give?
A: The Potency was inconclusive [falling, single point].

Q: Which Potency does the source give for `Cc1nc(/C(N)=N/OC(=O)c2ccccc2Cl)c(C(F)(F)F)o1` here?
A: The Potency was inconclusive [falling, partial curve].

Q: For `c1coc(-c2nc3ccccc3nc2-c2ccco2)c1`, which “activity change, negative = inhibition” value is on record?
A: The value was inactive: 30.3%.

Q: For `Cc1ccc(-c2ccc(S(=O)(=O)N3CCCC3)cc2)cc1`, which Potency is on record?
A: The Potency was inconclusive [falling, single point].

Q: How did the “activity change, negative = inhibition” value turn out when `Cc1cc(C2=CC(C)(c3cc(C)oc3C)Nc3nc(C(F)(F)F)nn32)c(C)o1` (centres undefined) was run?
A: Its value is inactive: 94.2%.

Q: For `CC(=O)Nc1sc(N/N=C/c2ccccc2F)nc1-c1ccc(C)cc1`, which “activity change, negative = inhibition” value is on record?
A: Its value is inactive: 69%.

Q: For `c1ccc2c(c1)Cn1c-2nc2ccccc21`, which Potency is on record?
A: The Potency was inconclusive [falling, partial curve].

Q: With `COc1ccc2ccccc2c1C(=O)/C=C\c1ccoc1` as the compound, how does the “activity change, negative = inhibition” value read?
A: Its value is inactive: 39.8%.

Q: `NS(=O)(=O)c1ccc2c(c1)oc(=O)c1cc(S(N)(=O)=O)ccc12` was tested. Which “activity change, negative = inhibition” value did it give?
A: Its value is inactive: 160%.

Q: `COC(=O)c1c(N2C(=O)CC(Sc3ccccc3C(=O)O)C2=O)sc2c1CCCC2` (centres undefined) was tested. Which “activity change, negative = inhibition” value did it give?
A: The value was inactive: 70.6%.

Q: Which Potency does the source give for `O=C(NCc1csc2ccc(Cl)cc12)Nc1cccc2ccccc12` here?
A: Its Potency is inconclusive [falling, single point].

Q: With `Cc1cc(NC(=O)CSc2nnc(-c3ccc(Cl)s3)o2)no1` as the compound, how does the “activity change, negative = inhibition” value read?
A: The value was inactive: 98.8%.

Q: `CCCOc1ccc2cc(-c3ccccn3)c(=O)oc2c1` was tested. Which Potency did it give?
A: The Potency was inconclusive [falling, partial curve].

Q: How did the “activity change, negative = inhibition” value turn out when `O=C(CSc1ccccc1)N1CCN(S(=O)(=O)c2ccccc2F)CC1` was run?
A: The value was inactive: 119%.

Q: Which “activity change, negative = inhibition” value does the source give for `Cc1ccc(NC(=O)c2ccc(Cl)c(N3C(=O)C=CC3=O)c2)cc1` here?
A: The value was inactive: 119%.

Q: `CCN1C(=O)N/C(=C/c2ccc(C)o2)C1=O` was tested. Which “activity change, negative = inhibition” value did it give?
A: The value was inactive: 39.9%.

Q: `CCOC(=O)c1ccc(N/C=C/C(=O)c2ccco2)cc1` was tested. Which Potency did it give?
A: Its Potency is inconclusive [falling, single point].

Q: Which Potency does the source give for `CCNC(=S)N/N=C/c1ccc(C(=O)O)cc1` here?
A: The Potency was inconclusive [falling, single point].

Q: For `O=C(NC1CCSC1=O)c1cccc(Cl)c1` (centres undefined), which Potency is on record?
A: Its Potency is inconclusive [falling, single point].

Q: Which “activity change, negative = inhibition” value does the source give for `Cc1cccc(CSc2nc3c(c(=O)n2C)SCC3)c1` here?
A: Its value is inactive: 61.3%.

Q: `CC(C)c1ccc(O)c(NC(=S)NC(=O)c2ccc3c(c2)OCO3)c1` was tested. Which Potency did it give?
A: Its Potency is inconclusive [falling, partial curve].

Q: `CCC(CC)NC(=O)Nc1ccc(F)cc1F` was tested. Which Potency did it give?
A: The Potency was inconclusive [falling, single point].

Q: Which Potency does the source give for `CC1=C(c2ccccc2)[N+](=O)C2(CCCC2)N1[O-]` here?
A: Its Potency is inconclusive [falling, full curve, poor fit].
